Data reported in PMC4336329 (PLoS ONE, 2015).
About 2,200 (0.71%) of roughly 310,000 compounds showed an effect of 50% or more. The effect is printed as a negative number. The list shows a part of the results.

molecular target: human ether-à-go-go-related gene (hERG) potassium channel (human, UniProt Q12809); assay: primary screen, population patch clamp on CHO cells stably expressing hERG
Sequence (Q12809 whole entry, looked up): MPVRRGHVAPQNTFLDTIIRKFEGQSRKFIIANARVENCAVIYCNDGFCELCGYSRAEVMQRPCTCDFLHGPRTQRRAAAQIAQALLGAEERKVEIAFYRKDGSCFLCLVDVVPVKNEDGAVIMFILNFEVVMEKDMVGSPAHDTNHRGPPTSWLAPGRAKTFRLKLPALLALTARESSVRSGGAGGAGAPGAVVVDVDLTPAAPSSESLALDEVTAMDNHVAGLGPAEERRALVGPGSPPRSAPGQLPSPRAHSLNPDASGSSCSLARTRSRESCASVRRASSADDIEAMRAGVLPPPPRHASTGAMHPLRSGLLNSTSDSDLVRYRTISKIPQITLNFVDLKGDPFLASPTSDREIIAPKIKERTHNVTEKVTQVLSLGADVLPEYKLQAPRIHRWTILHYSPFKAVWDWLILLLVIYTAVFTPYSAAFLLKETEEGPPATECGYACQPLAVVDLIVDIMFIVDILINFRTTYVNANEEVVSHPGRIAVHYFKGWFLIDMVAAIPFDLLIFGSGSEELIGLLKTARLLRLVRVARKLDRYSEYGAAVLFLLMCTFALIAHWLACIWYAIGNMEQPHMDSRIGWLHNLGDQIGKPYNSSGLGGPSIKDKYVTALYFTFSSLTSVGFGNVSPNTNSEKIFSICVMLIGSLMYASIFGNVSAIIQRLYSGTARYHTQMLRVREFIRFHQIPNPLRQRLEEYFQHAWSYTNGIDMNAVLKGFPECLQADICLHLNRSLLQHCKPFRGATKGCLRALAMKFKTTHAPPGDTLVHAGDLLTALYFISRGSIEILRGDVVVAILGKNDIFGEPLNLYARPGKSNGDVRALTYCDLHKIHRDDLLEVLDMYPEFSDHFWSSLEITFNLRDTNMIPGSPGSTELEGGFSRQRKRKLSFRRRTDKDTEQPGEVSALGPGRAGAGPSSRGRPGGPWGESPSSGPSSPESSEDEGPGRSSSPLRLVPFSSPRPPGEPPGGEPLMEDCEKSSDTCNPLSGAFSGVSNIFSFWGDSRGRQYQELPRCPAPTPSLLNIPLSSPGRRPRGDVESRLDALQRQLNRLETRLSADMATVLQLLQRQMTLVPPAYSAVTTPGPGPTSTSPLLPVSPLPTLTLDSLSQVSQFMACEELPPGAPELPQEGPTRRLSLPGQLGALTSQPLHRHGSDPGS

Row | SMILES | hERG current change (%, negative = inhibition) at 1uM [%]
1 | COc1cc([N+](=O)[O-])cc2cc(C(=O)NC(C)(C)C)c(=O)oc12 | 0.075
2 | Cc1ccc2[nH]c3c(c2c1)CCc1cn[nH]c1-3 | 21.9
3 | Cc1ccc(NC(=O)COC(=O)CCOc2ccccc2C)cc1 | 14.5
4 | O=C(Cn1c(C(=O)N2CCN(C3CCCCC3)CC2)cc2sccc21)c1ccccc1 | -47.5
5 | N/C(Cc1cccs1)=N\OC(=O)COc1ccc(Br)cc1 | 8.46
6 | CN(CC1COc2ccccc2O1)C(=O)c1ccc(Cl)c(S(=O)(=O)N2CCCCCC2)c1 (centres unmarked) | 2.78
7 | Cc1ccc2c(c1)c1c(n2CC(O)Cn2c(C)nc3ccccc32)CCCC1 (centres unmarked) | 0.779
8 | NNc1nc2c(Cl)cccc2s1 | 14.1
9 | CC(=O)c1ccccc1OCCOCCOCCOc1ccccc1C(C)=O | 5.79
10 | N#C/C(=C\Nc1ccccc1SC(F)(F)F)c1nc(-c2ccc(F)cc2)cs1 | 15.5
11 | Cc1cc(=O)[nH]c2ccc(Cl)cc12 | 3.34
12 | CCOc1ccccc1NC(=O)c1cccc2ccccc12 | 10.9
13 | Cc1n[nH]c(=S)n1/N=C/c1ccc(Br)o1 | 10.1
14 | O=C(NNc1c2ccccc2nc2ccccc12)C(O)c1ccccc1 (centres unmarked) | 9.51
15 | COc1cccc(N(C(=O)c2ccn[nH]2)C2(C(=O)Nc3c(C)cccc3C)CCCCC2)c1 | 1.35
16 | COc1ccc(NC(=O)CCCCC(=O)Nc2ccc(OC)cc2)cc1 | 8.55
17 | c1ccc2c(c1)[nH]c1nc(SCCN3CCOCC3)nnc12 | 5.28
18 | Cc1cc(C)n2nc(N)c(N=Nc3cccc(Cl)c3)c2n1 | 3.62
19 | CSCCC(NC(=O)c1ccco1)C(=O)O (centres unmarked) | 2.89
20 | CCCSP1(=S)NCCCO1 (centres unmarked) | 2.42
21 | CC1=C(C(=O)OCc2ccccc2)C(c2ccsc2)NC(=O)N1C (centres unmarked) | -6.57
22 | CCC(C)NCC(O)(c1ccc(Cl)cc1)c1ccc(Cl)cc1 (centres unmarked) | -1.23
23 | COc1ccc(C(CC(=O)O)NC(=O)c2ccco2)cc1OC (centres unmarked) | 7.24

Row | SMILES | hERG current change (%, negative = inhibition) at 1uM [%]
24 | CCOC(=O)C1(Cc2ccccc2)CCN(Cc2ccc(COC)o2)CC1 | 13.9
25 | CN(CC(=O)Nc1ccccc1C(=O)NC1CC1)Cc1ccc(Cl)cc1 | -10.2
26 | CN1CCN(S(=O)(=O)c2ccc(-c3noc(C4CCN(S(C)(=O)=O)CC4)n3)cc2)CC1 | 1.58
27 | Cc1ccc(S(=O)(=O)N2CCN(C(=O)c3nn(C(C)C)c(=O)c4ccccc34)CC2)cc1C | 5.96
28 | CCC(Oc1ccccc1)C(=O)N1CCN(CC)CC1 (centres unmarked) | 11.9
29 | COc1ccc(-c2ccc3oc(-c4ccc(OC)cc4)c(C#CC4(O)CCCCC4)c3c2)cc1 | 15.2
30 | COc1ccc(/C=N/NC(=O)c2ccc(N3CCCC3=O)cc2)cc1 | 8.41
31 | CC1(C)Cc2cccc(OCC(=O)OCC(=O)Nc3ccccc3)c2O1 | 4.55
32 | COc1ccc(CCN(C)c2ccc(C(N)=O)cc2[N+](=O)[O-])cc1OC | 9.04
33 | CCCCNc1nc(N)ncc1[N+](=O)[O-] | 7.62
34 | COc1cc(-c2nnc(SCC(=O)N3CCOCC3)o2)cc(OC)c1OC | 3.58
35 | Nc1nc(CN2CCc3ccccc3C2)nc(Nc2ccccc2)n1 | -10.8
36 | O=C(Nc1nc2c(F)cc(F)cc2s1)c1ccccn1 | 1.31
37 | Cn1c(=O)oc2cc(S(=O)(=O)NCCC(=O)NC3CCCc4ccccc43)ccc21 (centres unmarked) | 12.7
38 | C=C(C)C(=O)Nc1nnc(-c2cccs2)s1 | 17.6
39 | Cc1ccc(NC(=O)CSc2ccc(-c3cccnc3)nn2)c(C)c1 | 1.37
40 | COC(=O)c1ccc(NC(=O)COC(=O)CSc2nc(C)cc(C)n2)cc1 | 11.8
41 | Cc1cc2c(cc1C)C(c1ccccc1OC(C)C)CC(=O)N2 (centres unmarked) | 8.95
42 | COc1ccccc1C(=O)N/C(=C\c1ccccc1)C(=O)NCc1ccco1 | 2.29
43 | Cc1cc(C)n(Cc2cc(C(=O)O)c3ccccc3n2)n1 | 4.44
44 | Cc1ccc(S(=O)(=O)N2CCN(CC(=O)N3CCOCC3)CC2)cc1 | 14
45 | COc1cccc(NC(=S)N(CCc2nc3cc(C)c(C)cc3[nH]2)Cc2cccnc2)c1 | 7.28
46 | CN(C(=O)CSc1nncn1C)C1CCCN(Cc2ccccc2F)C1 (centres unmarked) | -0.252

Row | SMILES | hERG current change (%, negative = inhibition) at 1uM [%]
47 | CCOc1ccc(C2CC(c3c(O)n(C)c(=O)n(C)c3=O)=NN2)cc1 (centres unmarked) | 6.28
48 | CC1=C(c2ccc(C(C)C)cc2)S(=O)(=O)N=C1N1CCN(C(=O)c2ccco2)CC1 | -0.255
49 | Cc1c(NC(=O)c2cc3nc(-c4ccccc4)cc(C)n3n2)c(=O)n(-c2ccccc2)n1C | 0.844
50 | Cc1cccn2c(=O)c3cc(C(=O)NCc4ccco4)c(=N)n(CCc4ccccc4)c3nc12 | -82.2
51 | COC(=O)c1ccc(OC(=O)c2ccc(OC)cc2)c(OC)c1 | 20.8
52 | COc1cccc(-c2nnc(SCC(=O)N3CCOCC3)o2)c1 | 6.14
53 | Cc1cc(Nc2ccccc2)n(-c2nc3ccccc3[nH]2)n1 | 13.5
54 | Cc1cccc(C)c1NS(=O)(=O)c1ccc(OCCNS(C)(=O)=O)cc1 | 7.78
55 | CCCCC(=O)NC(=S)NNC(=O)c1ccc(OC)cc1 | 10.5
56 | COc1ccc(N/C(C)=C2/C(=O)C(=O)N(CCO)C2c2ccc([N+](=O)[O-])cc2)cc1 (centres unmarked) | -7.62
57 | Cc1ccc2[nH]c3c(c2c1)CCC3=O | 0.963
58 | COc1cc(/C=N\NC(=O)C2CC3C=CC2C3)ccc1O (centres unmarked) | 9.05
59 | COc1cc(OC)cc(C(C(=O)NCc2ccccc2)N(Cc2ccco2)C(=O)c2ccno2)c1 (centres unmarked) | 7.21
60 | CCOC(=O)N1CCC(N2CCN(c3cc(C)ccc3C)CC2)CC1 | -32.2
61 | CCCCc1nnc(NC(=O)CN2C(=O)C3CCCCC3C2=O)s1 (centres unmarked) | 11.8
62 | CCN(C(=O)COC(=O)COc1ccccc1Cl)c1c(N)n(Cc2ccccc2)c(=O)[nH]c1=O | 9.53
63 | CCN(CC)C(=O)CN1C(=O)C2(OCC(C)(C)CO2)c2ccccc21 | 9.97
64 | COC(=O)CC1=NN(c2nc(C)cc(C)n2)C(=O)C1 | 10.2
65 | COc1ccccc1NC(=O)c1sc2nc(-c3ccco3)ccc2c1N | 8.84
66 | Cc1nn(-c2nnc(NCc3ccccc3)nn2)c(C)c1Br | 6.29
67 | Cn1c(=O)[nH]c2nc[nH]c2c1=O | 15.6
68 | Cc1cc(C)n(C(C)CC(=O)Nc2ccc(-c3ccno3)cc2)n1 (centres unmarked) | 0.72
69 | Cc1ccc2c(c1)N(CCCC(=O)Nc1cccc(C(F)(F)F)c1)C(=O)CO2 | 15.5

Row | SMILES | hERG current change (%, negative = inhibition) at 1uM [%]
70 | CCOC(=O)c1c(NC(=O)C2c3ccccc3Oc3ccccc32)sc(C(C)=O)c1C | 20.4
71 | Cc1cc(C(F)F)n2ncc(C(=O)N3CCc4ccccc4C3)c2n1 | -7.82
72 | O=C1CCC(=O)N1c1ccc(S(=O)(=O)Nc2cccc([N+](=O)[O-])c2)cc1 | 14
73 | Fc1ccc(Cn2cc(C(=S)N3CCOCC3)c3ccccc32)cc1 | 11.5
74 | Cc1ccc(C(C(=O)NC2CCCCC2)N(C(=O)CCCC(=O)Nc2ccccn2)c2ccc3c(c2)OCCO3)cc1 (centres unmarked) | -2.7
75 | COC(=O)/C(=C\Nc1ccccc1)NC(=O)c1ccc(Cl)cc1Cl | 5.02
76 | O=C(CN1C(=O)NC2(CCCCC2)C1=O)NCC(=O)Nc1ccc(F)c(F)c1 | 4.14
77 | Cc1ccc(N2C(=O)NC(=O)/C(=C\c3cc(C)n(-c4cc(C(=O)O)cc(C(=O)O)c4)c3C)C2=O)cc1 | 11
78 | CC1CCN(Cc2c(O)ccc3c2O/C(=C\c2ccco2)C3=O)CC1 | 0.393
79 | CN(C)CCNc1c2c(c(C#N)c3nc4ccccc4n13)CCCC2 | 6.94
80 | C=CCc1cc(C)ccc1OCCOCCn1ccnc1.O=C(O)C(=O)O | -5.94
81 | CCn1nc(C)c(CN2CCCCC2C(=O)Nc2ccc(Oc3cccnc3)cc2)c1C (centres unmarked) | 3.19
82 | Cc1ccc(S(=O)(=O)N2CCC(C(=O)N3CC(C)OC(C)C3)CC2)cc1 (centres unmarked) | 10.2
83 | COc1ccc(NC(=O)COC(=O)C2CC(=O)N(CCc3ccc(OC)c(OC)c3)C2)cc1Cl (centres unmarked) | 13.4
84 | Cc1ccc(-n2c(C)nnc2SCC(=O)N(C)c2c(N)n(Cc3ccccc3)c(=O)[nH]c2=O)cc1 | 6.87
85 | COc1cc(C=O)ccc1OCCCOc1ccc([N+](=O)[O-])cc1 | 9.56
86 | COc1ccc2c(CC(=O)Nc3nccs3)coc2c1 | 14
87 | COc1ccc(C)cc1NC(=O)C1CCN(S(=O)(=O)c2cccc3cccnc23)CC1 | 12.7
88 | O=C(CCCN1C(=O)/C(=C\c2cccc(Br)c2)SC1=S)Nc1cccnc1 | 16
89 | Cc1cc(C)cc(SCc2noc(C(=O)NCc3ccccc3)c2C(=O)NCc2ccccc2)c1 | 17
